Read counts are not given, so values of variants with three or more changes are uncertain.
B1: LINE1-mini (parent)
chain: GGCAGAGCUCAACACAGCGUGGCAAAGUGGCUGUGGCUAGACUGCC

Variants of: B1
Test: self-cleavage, relative activity (ratio to wild type); higher = more cleavage; in vitro, sequencing; the parent is a self-cleaving ribozyme

Which self-cleavage does the source give for GUCUGAGCUCAACACAGCGUGGCAAAGUGGCUUUGGCUAGACUGCC [G2U A4U G33U] here?
The self-cleavage was 0.04.

For GGCACAGCUCAACAAAGCGUGGCAAAGUGGCUGUGGCUCGACUGCC [G5C C15A A39C], which self-cleavage is on record?
Its self-cleavage is 0.02.

Which self-cleavage does the source give for GGCAGAGCUCAACACAGCGUGGCAAAGUAGUUGUGGCUGGACUGCC [G29A C31U A39G] here?
Its self-cleavage is 0.04.

Which self-cleavage does the source give for GGCAGAACUCAACACAGCGUGUCAAAGUGGUUGUGGCUAGACUGCC [G7A G22U C31U] here?
The self-cleavage was 0.28.

Which self-cleavage does the source give for GACGGAGCUCAACACAGCGUCGCAAAGUGCCUGUGGCUAGACUGCC [G2A A4G G21C G30C] here?
The self-cleavage was 0.36.

For GGCAGAGCUCAACAUAGCAUGGCAAAGUGGCUGUGAGUAGACUGCC [C15U G19A G36A C37G], which self-cleavage is on record?
The self-cleavage was 0.12.

For GGCAGAGCUCAAGGCAGCGCGGCCAAGUGGCUGUGGCUGGACUGCC [C13G A14G U20C A24C A39G], which self-cleavage is on record?
The self-cleavage was 0.03.

For GGCAGAGUUCAACAUAGCGUUGCUAAGUGGCUGUGGCUAGACUGCC [C8U C15U G21U A24U], which self-cleavage is on record?
The self-cleavage was 0.18.

With GGCAGAGCGCAACACAGCGUGGCUAAGUGGCCGUGGGUAGACUGCC [U9G A24U U32C C37G] as the variant, how does the self-cleavage read?
Its self-cleavage is 0.17.

Which self-cleavage does the source give for AGCAGAGCUCAACACAGCGUGGCAAAAUUGCUGUGACUAGACUGCG [G1A G27A G29U G36A C46G] here?
The self-cleavage was 0.24.

With GCCAGAGCUCAACACAGCUUGGCAAAUUGGCUGUGACUAGACUGCC [G2C G19U G27U G36A] as the variant, how does the self-cleavage read?
The self-cleavage was 0.1.

For GGCAGAGCUAAACACAUCGUAGCUAAGUGGCUAUGGCUAGAGUGCC [C10A G17U G21A A24U G33A C42G], which self-cleavage is on record?
The self-cleavage was 0.

For GGCAGAGCUACACGCAGCGUGGCAAAGUGGCUGUGGCUAGACUGCC [C10A A11C A14G], which self-cleavage is on record?
Its self-cleavage is 0.

For GGCAGAGCUCCACACAGUGUGGCAAACUGGCUGUGGCUAGACUGCC [A11C C18U G27C], which self-cleavage is on record?
The self-cleavage was 0.02.

With GGCAGAGGUCAACCCAGCGUGGCAAAGUGGCUUUGGAUAAACUGCC [C8G A14C G33U C37A G40A] as the variant, how does the self-cleavage read?
The self-cleavage was 0.02.

Which self-cleavage does the source give for GGCAGAGCUCAACACAGCUUGGCAAAGUGGCUGUGGCUACACUCCC [G19U G40C G44C] here?
Its self-cleavage is 0.01.

Which self-cleavage does the source give for GGCAGAGCUCAACACAGGGGGGCAAAGUGGCUGUGGCCAGACUGCC [C18G U20G U38C] here?
The self-cleavage was 0.

Which self-cleavage does the source give for GGCAGAGCUCAACAUAGCGUGGCAAAGUGGCUGUGGCUAAUCUGCC [C15U G40A A41U] here?
The self-cleavage was 0.08.

With GGCAGAGCUCAACACAGCGUGACAAAGUGGCUGUGGCUAGUCUGAC [G22A A41U C45A] as the variant, how does the self-cleavage read?
The self-cleavage was 0.36.

With UGCAAAGCUCAACACAGCGUGGCAAAGUGGCUGUGGCUUGGUCGCC [G1U G5A A39U A41G C42U U43C] as the variant, how does the self-cleavage read?
Its self-cleavage is 0.15.

For GGCAGAGCUCAACACAGAGUGGCAAAGUGGCUGCGGCUAGCCUGCC [C18A U34C A41C], which self-cleavage is on record?
The self-cleavage was 0.08.

For UGCAUAGCUAAACACAGCGUGGCAAAGUGGCUUUGGCUAGACUGCC [G1U G5U C10A G33U], which self-cleavage is on record?
Its self-cleavage is 0.01.

Which self-cleavage does the source give for GCCAGAGAUCAACACAGCGUGGCAAAGUGUCUGUGGCUAAACUGCC [G2C C8A G30U G40A] here?
Its self-cleavage is 0.09.

With GGCAUAGCUCAACACAGCGUGGCAAAAUGGCUCUGGCUAGACUGCC [G5U G27A G33C] as the variant, how does the self-cleavage read?
Its self-cleavage is 0.09.

Which self-cleavage does the source give for GGCAGAGCUCAACACAGCAUGGCAGAGUGGCUGUGGCGAGACGCCC [G19A A25G U38G U43G G44C] here?
Its self-cleavage is 0.02.

With GGCAGAGCUCAACACAGCGUGGCAAAGUGGCUGGGCCUCGACUGCC [U34G G36C A39C] as the variant, how does the self-cleavage read?
The self-cleavage was 0.06.

Which self-cleavage does the source give for GGCCGAGCUCCACACAGCGUGGCAAAGUGGCUGGGGCUAGACUGCC [A4C A11C U34G] here?
Its self-cleavage is 0.01.

Which self-cleavage does the source give for GGCAGAGGUCAACACAGCGUGGCAAAGUACCUGUGACUAGACUGCC [C8G G29A G30C G36A] here?
The self-cleavage was 0.05.

Which self-cleavage does the source give for GGCAGAGCUCUACAGAGCAUGGCAGAAUUCCUGUGGCUAGACUGCC [A11U C15G G19A A25G G27A G29U G30C] here?
The self-cleavage was 0.

With GGCAGAGCUCAACACAGCGUGACAAAGUAGCUGUCGCUGGACUGCC [G22A G29A G35C A39G] as the variant, how does the self-cleavage read?
Its self-cleavage is 0.04.

Which self-cleavage does the source give for GGCAGAGCUCAACAAAGCGUGGCAAAGCGGCUGUGGCUAGCCUGCC [C15A U28C A41C] here?
The self-cleavage was 0.01.

With GGCAGAUCUCAACAGAGCGUGGCAAAGUUGCUGCGGCUGGACGGCC [G7U C15G G29U U34C A39G U43G] as the variant, how does the self-cleavage read?
The self-cleavage was 0.07.

Which self-cleavage does the source give for GGCAAAGCUUAACAAAGCGUGGCAAAGUGGCUGUGGCUAGACUGCC [G5A C10U C15A] here?
The self-cleavage was 0.

For GGCAGAGCUCAACACACCGUGGCAACGUGGCAGUGGCUAGACUGAC [G17C A26C U32A C45A], which self-cleavage is on record?
The self-cleavage was 0.05.

For GGCACCGCUAAACACUGAGUGGCAAAGUGGCUGUGGCUAGCCUGCC [G5C A6C C10A A16U C18A A41C], which self-cleavage is on record?
The self-cleavage was 0.03.

For GGCAGAGCGCAACACAGCGUGGCAAAGUGGCUGGGGUUAGACUGCC [U9G U34G C37U], which self-cleavage is on record?
The self-cleavage was 0.11.

Which self-cleavage does the source give for GGCAGAGCUCAACCCAGCGUGGCAAAGUGGCGGUAGCUAGACUGCC [A14C U32G G35A] here?
The self-cleavage was 0.06.

With GGGAGAGCUCAACAUAACGUCGCAAAGUGGCUGUGGCUAUACUGCC [C3G C15U G17A G21C G40U] as the variant, how does the self-cleavage read?
The self-cleavage was 0.11.

With GGCAGAGCUCAUCACAGCGUGACAAAGUGGCUGUGGCUAGAAUGCC [A12U G22A C42A] as the variant, how does the self-cleavage read?
The self-cleavage was 0.15.

For GGCAGAACCCUACACAGCGUGGCAAAGUGGCUGUGGCUAUACUGCC [G7A U9C A11U G40U], which self-cleavage is on record?
Its self-cleavage is 0.01.

For GGCAGAGAUCAACACAGCGUGCGAGAGUGGCUGUGGCUAGACUGCC [C8A G22C C23G A25G], which self-cleavage is on record?
The self-cleavage was 0.02.

Which self-cleavage does the source give for GGCAGAGCUCAACACAGAGUGGCAAAGUGGCUGUGGCUAGACGGCA [C18A U43G C46A] here?
Its self-cleavage is 0.03.

For AGCAGUGCUCAAAACAGCGUGGCAAAGUGGCUGUCGCAAUACUGCC [G1A A6U C13A G35C U38A G40U], which self-cleavage is on record?
The self-cleavage was 0.02.

Which self-cleavage does the source give for GGCAGAACUCAACACAGCGUAGCAAAGUGGAUGUGACUAGACUGCC [G7A G21A C31A G36A] here?
The self-cleavage was 0.19.

Which self-cleavage does the source give for GGCAGAGCUCAACACAGCGAGGCAAAGUGGCUGUGCUUAGACUGAC [U20A G36C C37U C45A] here?
Its self-cleavage is 0.03.

Which self-cleavage does the source give for GGCAGAGGUCAACACAGCGUGGCAAAGUGGCUGUGCCUAAACUGCC [C8G G36C G40A] here?
Its self-cleavage is 0.04.

For UGCAGAGCUCAACACAGCGUGGCCAAGGGGCUGUGGCUAGACUGCC [G1U A24C U28G], which self-cleavage is on record?
The self-cleavage was 0.21.

With GGCAGAGAUUAACACAGCGUGGCAUAGUGGCUGUGGCUAGACUGCC [C8A C10U A25U] as the variant, how does the self-cleavage read?
Its self-cleavage is 0.04.

With GGCAGAGCUCAACACAGCGUGGCAAUGUCGCUGUGGCUAGAAUGCC [A26U G29C C42A] as the variant, how does the self-cleavage read?
Its self-cleavage is 0.06.

Which self-cleavage does the source give for GGCAGAGCUCAACAUAGCGUGUCAAAACGGCUGUGGCUAGACUGCC [C15U G22U G27A U28C] here?
The self-cleavage was 1.65.

For GGCAGAGCCCAUCACAGCAUGGCAAAGUGGCUGUGGCUAGACUGCC [U9C A12U G19A], which self-cleavage is on record?
Its self-cleavage is 0.05.

For GCCAGAACUAAACCGAGCGUGGCAAAGUGGCUGUGGCUGGACUGCC [G2C G7A C10A A14C C15G A39G], which self-cleavage is on record?
The self-cleavage was 0.03.

Which self-cleavage does the source give for GGCAGAGCUCGACACAUCGUGGCAACGUGGCUGUGGCUAGACUGCC [A11G G17U A26C] here?
The self-cleavage was 0.04.

With GGCAGAGCUCCACAUAGCGUCGCAAAGUGGCUGUGGCUAGACUGCC [A11C C15U G21C] as the variant, how does the self-cleavage read?
The self-cleavage was 0.05.

Which self-cleavage does the source give for GGCAGAGGUCAGCACGGCGUGGCAAAGGGGCUGUGGCUAGACUGCC [C8G A12G A16G U28G] here?
The self-cleavage was 0.03.

With GGCAGAGCCCGACACAGCGUGGCAAAGUGGCUGUGGCUAGCCUGCC [U9C A11G A41C] as the variant, how does the self-cleavage read?
The self-cleavage was 0.02.

Reference: the RNAGym collection of RNA variant scans (doi:10.7554/elife.90254)
